Measured values from PMC4242493.
Some of the results follow. The list includes weakly bound sequences.

These sequences were tested against MaxL homodimer (UniProt P61244) (assay: universal protein-binding microarray (PBM)). Conditions: PBS-based mixture, 10 nM His-tagged protein dimer, 2% milk, 200 ng/uL BSA, 50 ng/uL salmon testes DNA, 0.02% TX-100; detection with Alexa 488 anti-His …; high values mean tight binding; most listed sequences are background and not binding sites; double strand, one strand shown.
UniProt P61244, sequence (P61244 whole entry): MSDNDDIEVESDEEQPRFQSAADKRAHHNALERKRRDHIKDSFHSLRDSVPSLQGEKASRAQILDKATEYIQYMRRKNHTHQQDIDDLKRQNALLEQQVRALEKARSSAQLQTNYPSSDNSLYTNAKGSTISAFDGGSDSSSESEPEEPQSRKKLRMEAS

Sequence | binding signal (normalized occupancy)
AAACGGGC | 0.0704
CTCGATCA | 0.0807
CGACCGTA | 0.073
ACAACAAC | 0.0714
GAAAGGCA | 0.0721
TAAGAGTA | 0.0797
CCTCTAAG | 0.0744
ACTGTATA | 0.0826
ACGTCACA | 0.0842
CGACAACA | 0.0842
AGAGTAAG | 0.0725
AACATACA | 0.086
AATACAGA | 0.0772
AGCGGAAG | 0.0676
CGGCCGTC | 0.0643
TCTAGAGA | 0.0758
ATATCTAC | 0.0859
AGCAACAG | 0.0757
GAGTTATA | 0.0774
AGAGCACG | 0.0859
AGACGGTG | 0.0721
CTGGCAGA | 0.0678
CCAGAAGG | 0.0714
ACTCAAGT | 0.0728
ACCGATTG | 0.0737

Sequence | binding signal (normalized occupancy)
GTCCGTCA | 0.0716
CAGCGCAC | 0.075
GATTTTCA | 0.0762
AAGAGTGT | 0.0784
ACAGCTCA | 0.0767
ATTCCTAG | 0.0726
ATTGAGTA | 0.0758
CAGGAAAG | 0.0722
ACTCTTGC | 0.0761
ACTTTAAG | 0.0722
GTTCGAGA | 0.0769
AAACCACT | 0.075
CGCTCAAA | 0.0736
ACATGATG | 0.0932
AATGAAGG | 0.0771
CATAGCAG | 0.0793
CCCCGACA | 0.0729
CCGGCAGG | 0.0654
AAGCAGAC | 0.071
CGTTTATC | 0.0816
ATCGAAAT | 0.0735
CTTTGGTA | 0.0682
AACTAAGT | 0.077
GTCTCCCA | 0.0745
CGGCGTGC | 0.0923

Sequence | binding signal (normalized occupancy)
GAGATCAC | 0.0846
CCCCTCCC | 0.0739
CCAAATCG | 0.0705
CCGGACGC | 0.0717
CAGCGCCC | 0.0653
ATGGGTTA | 0.0848
AGCCCCCT | 0.0762
AGCCAAGA | 0.0753
GGCGTTAA | 0.0768
CCCAGTGC | 0.0744
AGTGTTAC | 0.0737
ACCTCGCT | 0.0768
GCACCTAA | 0.0729
CAGTAGAC | 0.07
ACACAGTC | 0.0783
AACTTAGG | 0.0708
TATCCTAA | 0.0769
AAGACAAG | 0.0722
ACCTACCC | 0.0757
AGTCTCTG | 0.0686
ACAATTGA | 0.0762
AGCAATTA | 0.0722
TAGGCCCA | 0.0774
GGTAAGTA | 0.0814
AAAGGTTC | 0.071

Sequence | binding signal (normalized occupancy)
CCGATCAA | 0.0728
GGATAGAA | 0.0754
GACTAGAA | 0.0772
TTCAACAA | 0.074
TACGTGGA | 0.0878
GGTTTGCA | 0.075
CGCCCCGA | 0.0666
CAAGCCTA | 0.073
AAGCAATA | 0.0779
CCGACGGA | 0.0712
ACGTCTAC | 0.0712
AAGTACGT | 0.0761
AGGCAGTA | 0.0728
CTGCGGCC | 0.0759
GAATTTCA | 0.0701
ACTTGGAG | 0.0749
CGATTACC | 0.0718
ACACACAT | 0.0933
CACTGGAG | 0.0697
ATGAGGTG | 0.0912
ACGTTAGC | 0.0827
CTACCCTC | 0.0785
GGTGGCAC | 0.0789
CTCAGGTC | 0.0673
GGAAAGGA | 0.0727

Sequence | binding signal (normalized occupancy)
GGCAAAAC | 0.0695
AACTCTAG | 0.0718
AGATACGC | 0.0745
CCAGAGTA | 0.07
AGGTGCAA | 0.0732
AAAGAGCA | 0.0761
CTTAGACC | 0.0714
AGCGTACT | 0.0725
AGCATCCA | 0.0745
CACGCTCA | 0.0911
CTGTGTAA | 0.0739
ACAAATGG | 0.0846
TGGGCGAA | 0.0787
CCGGCTAA | 0.0678
AATATCTG | 0.0769
CGCCTCAA | 0.0686
GCAGCTGA | 0.0699
CCTCGCCC | 0.0743
CTCATCTA | 0.0801
TGCAGGAA | 0.0773
AAGGTTGC | 0.074
CCGTTCCC | 0.0767
ACGTTCAC | 0.0869
GGTTCAAC | 0.0739
CACCCCAA | 0.0828

Sequence | binding signal (normalized occupancy)
CTAGCTTA | 0.0705
TGGTACAA | 0.0836
CAGAGACC | 0.0727
ACCGAACG | 0.0693
CGCCGGAC | 0.0751
AGCTGAAT | 0.073
GTCATGGA | 0.0831
ACCCCTTA | 0.0764
GAAAACTC | 0.0701
AATTCTGC | 0.0713
CGAACGCG | 0.0729
CGACGGGA | 0.0752
ATTAATGG | 0.0784
AGTGGCGA | 0.0707
CCTTAGTC | 0.0691
CCGGTACA | 0.0743
ACCGGAGA | 0.0719
GTAACCAC | 0.0808
GTTACGGA | 0.0697
GCACGACA | 0.0849
ATAGTGTC | 0.0799
CGAACGTC | 0.0695
CTGCACCA | 0.0748
AGAGTTGG | 0.0732
ATCAACTA | 0.0737

Sequence | binding signal (normalized occupancy)
CAGTTTAG | 0.0719
AACGAGCC | 0.0647
GCACAACC | 0.0725
GAGGTAGC | 0.073
CGGGGGAA | 0.0708
CCTAGAAC | 0.0744
GGAATATA | 0.0779
CTTCAACA | 0.0819
AGGTGCAT | 0.0863
CTAGATGC | 0.0774
AACTGTTG | 0.0743
CTACCTTC | 0.0783
CTTAAATC | 0.0736
GCTATCAA | 0.0706
ATACAGAT | 0.0787
CCATGTTC | 0.0828
ACAATACT | 0.0785
CGTGAATC | 0.0801
ATAATAGC | 0.0778
TACTGTCA | 0.0849
CCCCTGAG | 0.0735
ATACTACA | 0.083
